These are yes or no findings as the source states them, for the method shown. In cells and extracts the contact can be indirect. Some results given as binding are weak or reduced against the parent protein; the word gives no strength. For some assays here: Where a sequence is shown, tags or fusion partners need not be part of it.

Chains of the proteins cited; added tags and fusions are not shown.
UniProt Q15208: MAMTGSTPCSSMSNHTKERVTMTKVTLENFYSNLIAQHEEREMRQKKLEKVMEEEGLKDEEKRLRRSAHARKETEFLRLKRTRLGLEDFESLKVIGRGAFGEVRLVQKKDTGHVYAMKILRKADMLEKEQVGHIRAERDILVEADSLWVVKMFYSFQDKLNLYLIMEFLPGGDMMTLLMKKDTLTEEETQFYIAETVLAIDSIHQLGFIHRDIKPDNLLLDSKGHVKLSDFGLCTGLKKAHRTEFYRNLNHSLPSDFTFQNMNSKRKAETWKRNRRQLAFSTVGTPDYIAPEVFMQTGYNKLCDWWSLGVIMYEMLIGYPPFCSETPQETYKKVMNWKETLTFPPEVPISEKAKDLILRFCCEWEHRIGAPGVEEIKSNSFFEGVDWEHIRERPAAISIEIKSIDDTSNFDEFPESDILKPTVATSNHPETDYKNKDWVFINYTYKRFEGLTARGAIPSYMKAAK
UniProt Q9GZV5: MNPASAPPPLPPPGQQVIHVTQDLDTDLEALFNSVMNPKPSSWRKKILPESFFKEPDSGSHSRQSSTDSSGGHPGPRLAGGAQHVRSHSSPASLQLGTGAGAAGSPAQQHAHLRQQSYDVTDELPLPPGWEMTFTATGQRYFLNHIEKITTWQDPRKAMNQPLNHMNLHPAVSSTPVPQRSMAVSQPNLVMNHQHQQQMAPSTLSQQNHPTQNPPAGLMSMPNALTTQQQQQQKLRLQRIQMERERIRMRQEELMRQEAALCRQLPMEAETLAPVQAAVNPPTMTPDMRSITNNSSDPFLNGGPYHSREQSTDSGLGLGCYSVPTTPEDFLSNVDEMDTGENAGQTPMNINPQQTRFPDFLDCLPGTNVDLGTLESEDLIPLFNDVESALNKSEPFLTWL

The target of one assay is T1, GST-POPX2 (human) (UniProt P49593).
T1 sequence: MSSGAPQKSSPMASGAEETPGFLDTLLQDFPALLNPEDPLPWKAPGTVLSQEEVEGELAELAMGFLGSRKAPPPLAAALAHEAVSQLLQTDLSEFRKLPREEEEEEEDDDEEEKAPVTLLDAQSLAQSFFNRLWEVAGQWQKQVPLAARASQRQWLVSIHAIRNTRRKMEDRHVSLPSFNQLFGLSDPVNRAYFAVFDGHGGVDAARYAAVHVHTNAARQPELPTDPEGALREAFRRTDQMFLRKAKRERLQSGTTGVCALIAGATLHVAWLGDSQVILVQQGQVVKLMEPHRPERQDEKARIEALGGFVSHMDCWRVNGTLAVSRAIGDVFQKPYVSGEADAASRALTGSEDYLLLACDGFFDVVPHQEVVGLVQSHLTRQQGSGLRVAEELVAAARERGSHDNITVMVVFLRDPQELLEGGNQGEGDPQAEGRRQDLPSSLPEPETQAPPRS
Description: co-IP; lysates of HEK293 cells co-expressing GST-POPX2 and the Flag- or Myc-tagged partner; 1 mg lysate on glutathione sepharose beads overnight at 4°C; 25 mM Tris pH 7.5, 150 mM NaCl, 0.5% Triton-X; Western blot with anti-Flag or anti-Myc.

The target of assay [1] is T2, endogenous LATS1 (human (endogenous in HEK293)) (UniProt O95835).
T2 sequence: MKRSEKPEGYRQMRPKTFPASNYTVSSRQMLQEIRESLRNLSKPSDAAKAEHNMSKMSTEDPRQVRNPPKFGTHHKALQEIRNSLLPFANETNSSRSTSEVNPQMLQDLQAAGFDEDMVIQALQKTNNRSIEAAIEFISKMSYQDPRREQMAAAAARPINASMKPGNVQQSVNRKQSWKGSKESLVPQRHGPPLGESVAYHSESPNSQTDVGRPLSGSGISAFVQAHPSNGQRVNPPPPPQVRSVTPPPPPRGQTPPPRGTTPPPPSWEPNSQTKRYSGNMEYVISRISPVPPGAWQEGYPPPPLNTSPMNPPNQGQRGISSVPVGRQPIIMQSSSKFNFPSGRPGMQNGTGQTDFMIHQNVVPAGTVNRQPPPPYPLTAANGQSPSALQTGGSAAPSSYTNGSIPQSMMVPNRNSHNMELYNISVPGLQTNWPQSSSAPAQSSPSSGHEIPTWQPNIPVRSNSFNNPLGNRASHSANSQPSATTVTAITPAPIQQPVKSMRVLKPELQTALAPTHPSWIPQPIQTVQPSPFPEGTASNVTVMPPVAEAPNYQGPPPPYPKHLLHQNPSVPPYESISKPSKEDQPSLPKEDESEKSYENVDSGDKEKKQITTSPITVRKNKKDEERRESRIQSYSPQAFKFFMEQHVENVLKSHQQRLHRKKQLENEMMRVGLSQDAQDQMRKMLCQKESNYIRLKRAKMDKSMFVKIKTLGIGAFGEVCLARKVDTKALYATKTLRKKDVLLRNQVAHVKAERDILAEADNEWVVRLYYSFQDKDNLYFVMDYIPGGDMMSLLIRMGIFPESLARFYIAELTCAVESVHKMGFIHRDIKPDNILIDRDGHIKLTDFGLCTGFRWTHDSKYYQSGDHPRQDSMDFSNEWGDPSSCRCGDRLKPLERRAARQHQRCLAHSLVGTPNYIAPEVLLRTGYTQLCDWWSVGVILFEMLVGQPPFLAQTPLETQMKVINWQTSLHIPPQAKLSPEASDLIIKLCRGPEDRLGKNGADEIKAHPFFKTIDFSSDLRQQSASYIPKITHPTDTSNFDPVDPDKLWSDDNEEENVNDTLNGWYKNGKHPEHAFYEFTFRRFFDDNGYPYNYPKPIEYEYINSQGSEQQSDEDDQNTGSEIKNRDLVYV
Kind of assay: co-IP; endogenous proteins of HEK293 lysate; primary antibody 1:100 overnight at 4°C, Protein G magnetic beads; 25 mM Tris pH 7.5, 150 mM NaCl, 0.5% Triton-X; Western blot. (In general: A western blot detects proteins with antibodies after separation by electrophoresis.)

For assay [2], the target named is T3, endogenous MST1 (human (endogenous in HEK293)) (UniProt Q13043).
T3 sequence: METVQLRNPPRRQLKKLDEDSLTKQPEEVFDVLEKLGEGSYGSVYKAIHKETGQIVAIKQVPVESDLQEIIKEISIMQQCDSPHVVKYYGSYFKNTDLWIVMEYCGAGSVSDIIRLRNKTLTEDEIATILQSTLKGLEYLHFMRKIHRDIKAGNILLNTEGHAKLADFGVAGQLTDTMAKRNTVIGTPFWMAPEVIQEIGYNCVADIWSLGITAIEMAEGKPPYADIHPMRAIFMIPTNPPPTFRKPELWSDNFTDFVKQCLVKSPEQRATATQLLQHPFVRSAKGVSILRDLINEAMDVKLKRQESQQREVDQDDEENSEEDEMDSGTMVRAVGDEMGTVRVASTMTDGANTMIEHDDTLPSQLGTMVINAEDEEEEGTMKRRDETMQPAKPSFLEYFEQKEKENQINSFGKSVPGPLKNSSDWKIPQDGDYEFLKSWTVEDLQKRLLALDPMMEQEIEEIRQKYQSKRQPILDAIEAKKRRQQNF
The assay is described as above.

As for “Flag-NDR1 (from UniProt Q15208 1-465) (enzyme)”, in the assay with GST-POPX2 (human), the binding result is recorded as “binds”. On the same count and under the same terms, with Flag-TAZ (from UniProt Q9GZV5 1-400) the entry was “no binding”; with Flag-YAP (from UniProt P46937-2 1-488), “no binding”.

B1: endogenous POPX2 (enzyme, UniProt P49593 1-454)
chain: T1 sequence
B1: the binding result in assay [1] and in assay [2] was “binds” throughout.

Source of the values: PMC6407677.
